Where “and” joins values, the source holds several entries; their conditions need not be identical. Equal values may be shown once. Screen size: about 2,000 compounds; about 45 (2%) were called active.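 How the source made its calls: active means inhibition above the mean of all tested compounds plus 3 SD (cut at about 49% in these data); inactive means the rest.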 The list shows a part of the results.
These compounds were tested against Perilipin-5 (Homo sapiens) + 1-acylglycerol-3-phosphate O-acyltransferase ABHD5 (Homo sapiens) (UniProt Q00G26+Q8WTS1) (assay: blockers of ABHD5 binding to perilipin-5 – cell lysate, split luciferase complementation, luminescence, NIH validation set, pilot screen (AID 493035;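 further: 0% = DMSO only wells while the 100% control is not stated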)). Conditions: split G. princeps luciferase complementation, lysates, 4 h, at 7.9 µM, hits give high values.
Sequence of UniProt Q00G26 (Q00G26 whole entry, looked up): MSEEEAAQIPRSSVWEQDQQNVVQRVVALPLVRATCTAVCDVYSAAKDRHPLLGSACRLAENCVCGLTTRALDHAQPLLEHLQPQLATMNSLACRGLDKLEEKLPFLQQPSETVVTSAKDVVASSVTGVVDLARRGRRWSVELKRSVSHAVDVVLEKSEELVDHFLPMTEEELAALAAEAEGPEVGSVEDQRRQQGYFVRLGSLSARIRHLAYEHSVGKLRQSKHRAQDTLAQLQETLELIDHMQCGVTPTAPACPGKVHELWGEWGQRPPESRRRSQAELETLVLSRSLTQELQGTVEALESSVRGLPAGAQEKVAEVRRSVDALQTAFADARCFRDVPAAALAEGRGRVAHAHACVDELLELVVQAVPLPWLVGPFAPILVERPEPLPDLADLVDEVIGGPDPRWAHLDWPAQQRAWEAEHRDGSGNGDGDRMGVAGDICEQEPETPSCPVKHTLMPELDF
Sequence of UniProt Q00G26 (Q8WTS1 whole entry, looked up): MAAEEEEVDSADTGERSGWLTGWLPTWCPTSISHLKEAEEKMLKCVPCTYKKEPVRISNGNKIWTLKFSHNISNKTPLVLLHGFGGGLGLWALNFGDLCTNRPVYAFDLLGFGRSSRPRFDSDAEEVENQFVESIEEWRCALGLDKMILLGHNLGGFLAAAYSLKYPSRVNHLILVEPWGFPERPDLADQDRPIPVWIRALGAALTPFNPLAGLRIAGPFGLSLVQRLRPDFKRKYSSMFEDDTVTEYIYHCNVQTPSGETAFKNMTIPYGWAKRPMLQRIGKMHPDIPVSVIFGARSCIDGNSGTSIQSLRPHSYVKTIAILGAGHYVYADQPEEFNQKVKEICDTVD

Compound	inhibition
CCn1ccnc1CN1CCCC(C(=O)c2cc(F)ccc2OC)C1 (stereo not drawn)	inactive: -5.2%
CCNC(=O)[C@H]1O[C@@H](n2cnc3c(N)ncnc32)[C@H](O)[C@@H]1O	inactive: 4.54%
CN1CC[C@@]23CCCC[C@@H]2[C@@H]1Cc1ccc(O)cc13	inactive: -1.48%
C[N+](C)(C)Cc1ccccc1	inactive: -2.04%
CCC(COC(=O)c1cc(OC)c(OC)c(OC)c1)(c1ccccc1)N(C)C (stereo not drawn)	inactive: 1.32%
O=c1[nH]c(=S)n(-c2ccccc2)c(O)c1/C=N/N1CCCCC1c1cccnc1 (stereo not drawn)	inactive: -0.01%
CN1C2CCC1CC(OC(=O)CCN1CCCC1)C2 (stereo not drawn)	inactive: -6.29%
O=C1C(=O)c2ccccc2-c2ccccc21	active: 69.8%
CCOC(=O)C(C)Oc1cc(C)cc2oc(=O)c3c(c12)CCCC3 (stereo not drawn)	inactive: 6.91%
COP(=S)(OC)SCN1C(=O)c2ccccc2C1=O	active: 93.3%
COC1=CC(=O)OC(/C=C/c2ccccc2)C1 (stereo not drawn)	inactive: -2.71%
C[C@H]1CCC[C@H](O)CCCCCc2cc(O)cc(O)c2C(=O)O1	inactive: -3.64%
CC12CN3CC(C)(CN(C1)C3c1cccs1)C2O (stereo not drawn)	inactive: -0.84%
Clc1ccc(C2NCCc3[nH]cnc32)cc1 (stereo not drawn)	inactive: -9.45%
COc1ccc(Cc2nccc3cc(OC)c(OC)cc23)cc1OC	inactive: -14.7%
CC1CCC[C@H](O)CCCCCc2cc(O)cc(O)c2C(=O)O1 (stereo partly drawn)	inactive: -0.89%
CC(C)(C)NCC(O)c1cc(Cl)c(N)c(Cl)c1 (stereo not drawn)	inactive: -1.96%
CN1C2CCC1CC(OC(=O)c1ccc(Cl)cc1)C2 (stereo not drawn)	inactive: 2.67%
CCOC(=O)c1cc2c(cn1)[nH]c1ccccc12	inactive: -11.3%
NCCc1ccc(O)cc1	inactive: -0.96%
C[N+]1(C)CCN(c2ccccc2)CC1	inactive: 3.04%
COc1ccc2c3c([nH]c2c1)C(C)=NCC3	inactive: -1.05%
Fc1ccc(C(OCCN2CCCC2)c2ccc(Br)cc2)cc1 (stereo not drawn)	inactive: -5%
[N-]=[N+]=CC(=O)OC[C@H](N)C(=O)O	inactive: 1.86%
O=S(=O)(c1ccc(F)cc1)N1CCCCC1c1cccnc1 (stereo not drawn)	inactive: -5.97%
CC(=O)C1=C(C)OC(N)=C(C(=O)OC(C)C)C12C(=O)Nc1ccccc12 (stereo not drawn)	inactive: -0.22%

Compound	inhibition
CC(C)NC(C)C(=O)c1ccc2ccccc2c1 (stereo not drawn)	inactive: 1.56%
CCN1CC2(COC(=O)c3ccccc3N)CCC(OC)C34C5CC6C(OC)CC(O)(C5C6OC)C(O)(C(OC)C23)C14 (stereo not drawn)	inactive: 0.04%
COc1ccc(OC)c([C@@H](O)[C@H](C)NC(C)(C)C)c1	inactive: 2.3%
C[C@H]1OC[C@@H](C[N+](C)(C)C)O1	inactive: -3.43%
O=C1CSC2N1CCNC21CCCCC1 (stereo not drawn)	inactive: -2.6%
Clc1ccc(COC(Cn2ccnc2)c2ccc(Cl)cc2Cl)c(Cl)c1 (stereo not drawn)	inactive: 4.9%
COc1cccc(Oc2c(C)oc3cc(OC(=O)N(C)C)ccc3c2=O)c1	inactive: 6.76%
COc1ccc(CN2CC3CC(C2)c2cccc(=O)n2C3)cc1OC (stereo not drawn)	inactive: -4.44%
COc1ccc(OC)c(C(O)C(C)N)c1 (stereo not drawn)	inactive: 6.1%
CN1[C@@H]2CC[C@H]1CC(OC(=O)C1C=Nc3ccccc31)C2 (stereo partly drawn)	inactive: -3.7%
CCCC(C)(COC(N)=O)COC(=O)NC(C)C (stereo not drawn)	inactive: -7.91%
C[C@]12CCC(=O)C=C1CC[C@@H]1[C@@H]2CC[C@]2(C)C(=O)CC[C@@H]12	inactive: -5.66%
OC(c1ccccc1)(c1ccccc1)C1CCNCC1	inactive: -13.8%
COc1ccc(-c2nc3ccccc3c(=O)o2)cc1	inactive: -1.16%
CC(C)CCC1(CN2CCCC2=O)C(=O)NC(=O)NC1=O	inactive: 6.93%
CCOc1ccc(N2C(=O)NC(=O)/C(=C\c3cc(OC)c(OC)cc3[N+](=O)[O-])C2=O)cc1	active: 66.2%
CC(=O)[C@H]1CC[C@H]2[C@@H]3CC[C@H]4C[C@H](O)CC[C@]4(C)[C@H]3C(=O)C[C@]12C	inactive: -7.85%
COc1ccc(NC2=NCC(C)S2)cc1 (stereo not drawn)	inactive: 0.87%
c1ccc2c3c([nH]c2c1)CNCC3	inactive: -0.94%
CN(C)[C@@H]1C(=O)C(C(N)=O)=C(O)[C@@]2(O)C(=O)C3=C(O)c4c(O)cccc4[C@@](C)(O)[C@H]3[C@H](O)[C@@H]12	inactive: 13.2%
Cn1c(O)c(C=NCCc2c[nH]c3ccccc23)c(=O)n(C)c1=O	inactive: 3.49%
CC(=O)c1ccc(-c2ccccc2)cc1	inactive: 8.7%
CCCC(=O)OCC[N+](C)(C)C	inactive: -8.39%
C[C@]12CCC(=O)C(O)=C1CC[C@@H]1[C@@H]2CC[C@]2(C)C(=O)CC[C@@H]12	inactive: -7.16%
Cc1ccc2c(c1)C1CN(C)CCC1N2C(=O)Nc1cccc(Cl)c1 (stereo not drawn)	inactive: -3.27%
CCN(CC)CCOC(=O)C(O)(c1ccccc1)c1ccccc1	inactive: 0.42%

Compound	inhibition
O=C1C=Cc2ccccc2C1=O	active: 59.1%
C[C@]12CC[C@@H]3c4ccc(O)c(O)c4CC[C@H]3[C@@H]1CC[C@@H]2O	inactive: 22.1%
O=c1[nH]c2ccccc2n1C1CCN(CCCC(c2ccc(F)cc2)c2ccc(F)cc2)CC1	inactive: -10.5%
Cc1cc2c(C(C)C)c(O)c(O)c(C=O)c2c(O)c1-c1c(C)cc2c(C(C)C)c(O)c(O)c(C=O)c2c1O	active: 50.7%
Cc1cc(Cl)ccc1OC(C)C(=O)O (stereo not drawn)	inactive: -17.5%
CC(=O)Nc1cc([As](=O)(O)O)ccc1O	inactive: -10.9%
C[C@]12CCC(=O)C=C1CCC1C2CC[C@@]2(C)C1CC[C@@]2(O)CC#N (stereo partly drawn)	inactive: -3.89%
CC12CN3CC(C)(CN(C1)C3c1cccnc1)C2=O (stereo not drawn)	inactive: 4.61%
CN[C@H](C)[C@H](O)c1ccccc1	inactive: -0.5%
c1ccc2c(c1)[nH]c1cnccc12	inactive: 0.21%
CC(C)C(=O)Nc1ccc(S(=O)(=O)N2CC3CC(C2)c2cccc(=O)n2C3)cc1 (stereo not drawn)	inactive: -10.2%
O=Cc1cn(Cc2ccc(F)cc2)c2ccccc12	inactive: 2.39%
COc1ccccc1CN1CCCCC1c1cccnc1 (stereo not drawn)	inactive: -4.35%
Nc1ccc([As](=O)(O)O)cc1	inactive: 6.22%
CC12CN3CC(C)(CN(C1)C3c1cccs1)C2=O (stereo not drawn)	inactive: -6.92%
O=C1CC[C@@]2(O)[C@H]3Cc4ccc(O)c5c4[C@@]2(CCN3CC2CC2)[C@H]1O5	inactive: 2.6%
NCC1(c2ccc3c(c2)OCCO3)CCCC1	inactive: -7.35%
CN1C(=O)CN=C(c2ccc(Cl)cc2)c2cc(Cl)ccc21	inactive: -14.1%
O=c1cccc2n1C[C@H]1C[C@@H]2CN2CCCC[C@@H]12	inactive: -1.84%
CCC1(c2ccccc2)C(=O)N(COC)C(=O)N(COC)C1=O	inactive: 5.52%
c1ccc(Cn2ccnc2)cc1	inactive: -4.82%
CC(C)C[C@H]1C(=O)N2CCCC2[C@]2(O)O[C@](NC(=O)[C@@H]3C=C4c5cccc6[nH]cc(c56)CC4N(C)C3)(C(C)C)C(=O)N12 (stereo partly drawn)	inactive: 26.8%
CC(C)[C@H]1C(=O)N2CCC[C@H]2[C@]2(O)O[C@](NC(=O)[C@@H]3C=C4c5cccc6[nH]cc(c56)C[C@H]4N(C)C3)(C(C)C)C(=O)N12	inactive: 14.3%
C[N+]1(C)C2CCC1CC(OC(=O)C(CO)c1ccccc1)C2 (stereo not drawn)	inactive: -3.97%
O=c1c2ccccc2[se]n1-c1ccccc1	active: 95.1%
CC(C)(C)C(O)C(Oc1ccc(Cl)cc1)n1cncn1 (stereo not drawn)	inactive: -18.2%

Compound	inhibition
c1ccc2c(c1)Nc1ccccc1S2	inactive: -1.15%
NCC(O)c1ccc(O)cc1 (stereo not drawn)	inactive: -7.13%
C[C@H]1CC[C@@]2(C)[C@@H](CC[C@@H]3[C@@H]2CC[C@]2(C)[C@@H](O)CC[C@@H]32)C1	inactive: -0.69%
S=C1NCCN1	inactive: -0.74%
C[N+]1(C)[C@@H]2CC(OC(=O)[C@H](CO)c3ccccc3)C[C@H]1[C@@H]1O[C@@H]12 (stereo partly drawn)	inactive: -0.61% and inactive: 7.09%
CCN(CC)C(=O)N[C@H]1C[C@@H]2c3cccc4[nH]cc(c34)C[C@H]2N(C)C1	inactive: 5.32%
CC[C@@H](CO)NC(=O)[C@@H]1C=C2c3cccc4c3c(cn4C)C[C@H]2N(C)C1	inactive: 1.19%
CC12CN3CC(c4ccccc4)(CN(C1)C31CCCCC1)C2=O	inactive: -2.32%
c1ccc2c(c1)OCC(C1=NCCN1)O2 (stereo not drawn)	inactive: 1.63%
CC[N+]1(C)CCCC(OC(=O)C(O)(c2ccccc2)c2ccccc2)C1 (stereo not drawn)	inactive: -9.33%
Clc1ccc(COC(Cn2ccnc2)c2ccc(Cl)cc2Cl)cc1 (stereo not drawn)	inactive: -3.94%
C[C@H]1CCCC(=O)CCCCCc2cc(O)cc(O)c2C(=O)O1	inactive: 6.49%
O=C1NCCN2CCCC12 (stereo not drawn)	inactive: 0.54%
CN1C[C@H](CNC(=O)OCc2ccccc2)C[C@@H]2c3cccc4c3c(cn4C)C[C@H]21	inactive: -5.66%
OCc1cnc[nH]1	inactive: -16.1%
O=c1c2ccccc2nc(/C=C/c2ccc3c(c2)OCO3)n1-c1ccccc1	inactive: 2.37%
O=C(CCCN1CCC2(CC1)C(=O)NCN2c1ccccc1)c1ccc(F)cc1	inactive: 5.1%
C=C1CC[C@@]2(O)[C@H]3Cc4ccc(O)c5c4[C@@]2(CCN3CC2CC2)[C@H]1O5	inactive: 0.56%
Cc1ccc(/C=C2/C(=O)NC(=O)N(C)C2=O)cc1	inactive: 7.85%
C=CC1CN2CCC1CC2[C@@H](OC(=O)c1ccc(OC)cc1)c1ccnc2ccccc12 (stereo partly drawn)	inactive: -4.98%
NCCc1c[nH]c2ccc(F)cc12	inactive: -12.8%
CCOC(=O)c1cncn1C(C)c1ccccc1 (stereo not drawn)	inactive: 6.55%
c1cnc2c(c1)ccc1ncccc12	inactive: -11%
CCn1c(O)c(C(=O)CC2NCCc3ccccc32)c(=O)n(CC)c1=S (stereo not drawn)	inactive: 2.98%
C[N+]1(C)CCc2cc3c(cc2[C@H]1[C@@H]1OC(=O)c2c1ccc1c2OCO1)OCO3	inactive: -2.84% and inactive: -8.79%
